Experimental data reported in patent publication US20230348881.

B1: wild-type recombinant PPE proprotein (pro-rPPE) with a C-terminal his-tag (protein)
chain: TQDFPETNARVVGGTEAQRNSWPSQISLQYRSGSSWAHTCGGTLIRQNWVMTAAHCVDRELTFRVVVGEHNLNQNDGTEQYVGVQKIVVHPYWNTDDVAAGYDIALLRLAQSVTLNSYVQLGVLPRAGTILANNSPCYITGWGLTRTNGQLAQTLQQAYLPTVDYAICSSSSYWGSTVKNSMVCAGGDGVRSGCQGDSGGPLHCLVNGQYAVHGVTSFVSRLGCNVTRKPTVFTRVSAYISWINNVIASN
B2: active PPE protein (rPPE), made from pro-rPPE by trypsin activation (protein)
chain: VVGGTEAQRNSWPSQISLQYRSGSSWAHTCGGTLIRQNWVMTAAHCVDRELTFRVVVGEHNLNQNDGTEQYVGVQKIVVHPYWNTDDVAAGYDIALLRLAQSVTLNSYVQLGVLPRAGTILANNSPCYITGWGLTRTNGQLAQTLQQAYLPTVDYAICSSSSYWGSTVKNSMVCAGGDGVRSGCQGDSGGPLHCLVNGQYAVHGVTSFVSRLGCNVTRKPTVFTRVSAYISWINNVIASN

Molecular target: alpha-1 antitrypsin (A1AT), P01009
Sequence (P01009 whole entry, looked up): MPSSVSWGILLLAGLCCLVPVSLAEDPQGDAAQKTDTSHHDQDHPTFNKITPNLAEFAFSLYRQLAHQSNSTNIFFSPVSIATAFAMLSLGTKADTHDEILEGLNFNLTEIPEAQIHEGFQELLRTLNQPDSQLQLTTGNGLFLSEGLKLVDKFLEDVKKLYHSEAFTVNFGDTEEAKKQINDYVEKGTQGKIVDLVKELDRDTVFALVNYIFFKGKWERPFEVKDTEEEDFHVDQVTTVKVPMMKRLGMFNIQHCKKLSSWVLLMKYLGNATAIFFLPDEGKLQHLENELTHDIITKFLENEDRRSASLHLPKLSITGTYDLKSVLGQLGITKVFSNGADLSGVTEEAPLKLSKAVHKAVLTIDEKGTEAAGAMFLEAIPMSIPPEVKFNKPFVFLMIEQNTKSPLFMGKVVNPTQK

Protein | protease activity (colorimetric activity assay) after A1AT incubation, Ni-Sepharose purification and trypsin activation | protease activity (colorimetric activity assay) after A1AT incubation and Ni-Sepharose purification
B1 | full recovery of protease activity for pro-rPPE following isolation from the A1AT solution | –
B2 | – | the protease activity of activated rPPE was attenuated by A1AT when subjected to an identical procedure
